Hit rate of the full screen: of about 310,000 compounds, about 2,200 (0.71%) showed an effect of 50% or more. The effect is printed as a negative number. The list shows a part of the results.
What follows are compounds tested against human ether-à-go-go-related gene (hERG) potassium channel (human, UniProt Q12809) (assay: primary screen, population patch clamp on CHO cells stably expressing hERG).
Sequence of human ether-à-go-go-related gene (hERG) potassium channel (Q12809 whole entry, looked up): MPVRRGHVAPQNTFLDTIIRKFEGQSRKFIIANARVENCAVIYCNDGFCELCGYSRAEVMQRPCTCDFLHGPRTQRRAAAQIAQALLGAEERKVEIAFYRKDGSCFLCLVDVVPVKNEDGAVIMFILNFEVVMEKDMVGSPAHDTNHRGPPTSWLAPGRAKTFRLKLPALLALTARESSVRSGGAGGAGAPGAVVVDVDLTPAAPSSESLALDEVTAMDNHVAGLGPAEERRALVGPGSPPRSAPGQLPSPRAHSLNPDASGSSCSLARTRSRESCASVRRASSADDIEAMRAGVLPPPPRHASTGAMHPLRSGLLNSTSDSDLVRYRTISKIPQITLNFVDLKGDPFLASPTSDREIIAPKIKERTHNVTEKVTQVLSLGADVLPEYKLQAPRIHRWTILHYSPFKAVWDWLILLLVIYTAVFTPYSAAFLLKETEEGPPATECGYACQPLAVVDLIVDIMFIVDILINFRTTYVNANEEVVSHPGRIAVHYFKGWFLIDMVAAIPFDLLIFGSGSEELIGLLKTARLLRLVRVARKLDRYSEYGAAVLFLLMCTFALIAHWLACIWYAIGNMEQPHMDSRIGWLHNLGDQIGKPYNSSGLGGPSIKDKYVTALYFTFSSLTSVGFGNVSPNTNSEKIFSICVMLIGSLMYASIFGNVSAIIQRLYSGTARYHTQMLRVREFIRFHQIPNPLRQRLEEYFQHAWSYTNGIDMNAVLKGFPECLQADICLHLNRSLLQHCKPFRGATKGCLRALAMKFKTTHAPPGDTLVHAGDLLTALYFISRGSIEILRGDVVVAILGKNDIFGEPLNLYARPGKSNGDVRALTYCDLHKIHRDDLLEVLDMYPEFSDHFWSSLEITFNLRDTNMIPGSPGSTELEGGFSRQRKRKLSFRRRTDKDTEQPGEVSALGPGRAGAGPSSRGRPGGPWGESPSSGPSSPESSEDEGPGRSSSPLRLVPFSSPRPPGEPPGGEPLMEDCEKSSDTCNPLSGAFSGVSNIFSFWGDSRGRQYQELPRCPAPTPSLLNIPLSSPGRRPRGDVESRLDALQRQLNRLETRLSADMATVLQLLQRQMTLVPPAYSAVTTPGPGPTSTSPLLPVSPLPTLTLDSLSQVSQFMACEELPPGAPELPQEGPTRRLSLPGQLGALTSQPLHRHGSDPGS

| SMILES | hERG current change (%, negative = inhibition) at 1uM |
| --- | --- |
| Nc1ccc(Br)c[n+]1Cc1cccc2cccnc12.[Br-] | -22% |
| COc1ccc(-c2nc3c(-c4ccccc4)cnn3cc2C)cc1F | 5.15% |
| COCCn1c(SCC(=O)N2CCCC2)nc2c([nH]c3ccccc32)c1=O | -26% |
| CC(=O)c1sc2ccccc2c1OC(=O)c1ccco1 | 6.21% |
| Cc1cc(C)c(S(=O)(=O)N2CCCCC2)c(C)c1-n1ncnn1 | 12.5% |
| O=C(CN1C(=O)CC(c2ccccc2)S(=O)(=O)c2ccccc21)N1CCCC1 (stereo not shown) | 11.4% |
| O=S(=O)(NC1CCCCC1)c1cccc2nsnc12 | 18.5% |
| Cc1c(C(=O)Nc2c(F)cc(F)cc2Br)sc2ncn(CC(=O)N3CCCC3)c(=O)c12 | 23.2% |
| CCC(CC)C(=O)NCCc1ccc(S(N)(=O)=O)cc1 | 16.7% |
| O=C(COC(=O)C1CCN(S(=O)(=O)c2cccs2)CC1)c1cc2ccccc2o1 | 5.54% |
| O=C(CC(=O)N/N=C/c1ccccc1O)NCc1cccnc1 | -11.2% |
| CCCCc1c(C)c(C#N)c2[nH]c3ccccc3n2c1=O | 18.9% |
| CCc1ccc(C(O)(C(C)C)C(CN2CCOCC2)c2ccccc2)cc1.Cl (stereo not shown) | 5.45% |
| O=C(CN1CCCCC1)N/N=C/c1ccc(Cl)cc1 | -22.5% |
| COC(=O)[C@@H](NC(=O)Nc1ccc(OC)cc1)C(C)C | 14.5% |
| COc1ccc(Cl)cc1NC(=O)c1cc(C)no1 | 13.5% |
| O=C(NCC(=O)N(Cc1cccs1)C(C(=O)NC1CCCC1)c1cccnc1)c1ccco1 (stereo not shown) | 11.3% |
| O=C(O)C(=O)O.O=[N+]([O-])c1cccc(OCCCN2CCC(Cc3ccccc3)CC2)c1 | -82.9% |
| O=S(=O)(c1c(F)cccc1F)N1CCN(C(=S)NCc2ccc3c(c2)OCO3)CC1 | 27% |
| CC1=C(C(N)=O)C(c2cccnc2)n2nc(SCc3ccccc3Cl)nc2N1 (stereo not shown) | 1.55% |
| COc1ccc(CCNC(=O)c2ccc(N3CCCCS3(=O)=O)cc2)cc1OC | 13.7% |
| COc1cccc(N/C(SCc2ccccc2Cl)=C(/C#N)C(=O)NCc2cccs2)c1 | 11.7% |

| SMILES | hERG current change (%, negative = inhibition) at 1uM |
| --- | --- |
| COC(=O)C1=C(c2ccc(OC(F)(F)F)cc2)C[C@@H]2CC[C@H]1N2C(=O)NCCNC(C)=O | 17.8% |
| COc1ccc(-c2noc(C3CCCN(S(=O)(=O)c4cccc(Cl)c4)C3)n2)cc1OC (stereo not shown) | 2.69% |
| Cc1ccc(S(=O)(=O)N(CC(=O)N=Nc2c(O)[nH]c3ccccc23)c2ccc(C)c(C)c2)cc1 | 10.9% |
| CCN(C(=O)C1CCCN(c2nc(-c3ccc(OC)cc3)no2)C1)c1ccc(OC)cc1 (stereo not shown) | 10.4% |
| O=C(CSc1nc2ccccc2[nH]1)Nc1nc(-c2ccccc2)c(-c2ccccc2)o1 | 11.2% |
| COc1ccc(NC(=O)CN(C)CC(=O)N(C)C2(C#N)CCC(C)CC2)cc1 (stereo not shown) | 1.38% |
| CCC(C)c1ccc(S(=O)(=O)N2CCN(C(C)CC(=O)O)CC2)cc1 (stereo not shown) | 8.4% |
| CCc1cc(=O)oc2cc3oc(C)c(C)c3cc12 | 1.03% |
| CCC(C)c1ccccc1N1CC(C(=O)Nc2ccc(N3CCOCC3)cc2)CC1=O (stereo not shown) | 9.32% |
| CCOc1ccc(C2C(C#N)=C(N)Oc3cc(C)n(Cc4ccco4)c(=O)c32)cc1OC (stereo not shown) | 9.37% |
| CC(C)C(C(=O)OCC(=O)c1ccc2c(c1)NC(=O)CO2)N1C(=O)c2ccccc2C1=O (stereo not shown) | -1.04% |
| Cc1c(C(=O)NCc2ccccn2)oc2c(Cl)cccc12 | -3.74% |
| Cc1nc2cc(C(=O)OCC(=O)NC3CCS(=O)(=O)C3)ccc2n1-c1ccccc1 (stereo not shown) | 3.19% |
| CCCCc1cc(=O)oc2cc(OCC(=O)Nc3ccccn3)ccc12 | 14.8% |
| CSc1ccc(-c2nc(O)c3cnccn23)cc1 | 11.3% |
| CC(NC(=O)CSc1nnc(CC(=O)Nc2ccc(Cl)c(Cl)c2)n1C)c1ccccc1 (stereo not shown) | 8.96% |
| CCOC(=O)C1CCCN(S(=O)(=O)c2cc3c4c(c2)CCC(=O)N4CCC3)C1 (stereo not shown) | 8.71% |
| O=C(CNC(=O)c1ccccc1)Oc1ccc([N+](=O)[O-])cc1 | 12% |
| Cc1cc(NC(=O)COC(=O)C2CCC2)no1 | 11.4% |
| CCn1c(=O)c(C(=O)CN2CCc3ccccc32)c(N)n(Cc2ccccc2)c1=O | 0.0849% |
| CCOCCCNS(=O)(=O)c1ccc(OC)c(Cl)c1Cl | 7.12% |
| O=C(Cc1ccc(Cl)cc1)Nc1ccc2oc(-c3ccncc3)nc2c1 | 9.34% |

| SMILES | hERG current change (%, negative = inhibition) at 1uM |
| --- | --- |
| O=C(Nc1cc(S(=O)(=O)N2CCOCC2)ccc1Cl)c1cc2ccccc2o1 | -3.17% |
| CN(CC(=O)Nc1ccccc1N1CCCC1)S(=O)(=O)c1ccc(F)cc1 | 20.6% |
| COc1ccccc1CNC(=O)CCCNS(=O)(=O)c1cccc2nsnc12 | 6.81% |
| COc1ccc(S(=O)(=O)N2CCN(C)CC2)cc1C(=O)N1CCCCC1 | 5.11% |
| CCOC(=O)N1CCC(NC(=O)c2cc(-c3ccc(F)cc3)[nH]c2C)CC1 | 11.6% |
| O=C(Nc1cccc2ncccc12)c1cc2ccccc2o1 | 2.99% |
| COc1ccc(N(C=O)C(=S)SC)cc1 | 13.1% |
| CCOc1ccc(C(=O)C(CN2CCOCC2)c2ccccc2)cc1.Cl (stereo not shown) | 8.5% |
| Cc1ccc(NC(=O)COC(=O)c2cccc3c2C(=O)c2ccccc2C3=O)c(C)c1 | 7.07% |
| CCCNC(=O)C(=O)N/N=C/c1ccc(OCc2ccccc2)cc1 | 20.6% |
| CCO/N=C(/C)c1c(O)cc(-c2ccccc2)n(-c2ccccc2)c1=O | 12.1% |
| CCOC(=O)C1=C(C)N(c2ccc(OCC)cc2)C(=O)/C1=C\c1ccco1 | 6.73% |
| CCCN1C(=O)c2cc(C(=O)Nc3ccccc3OC)ccc2C1Nc1ccccc1OC (stereo not shown) | 3.4% |
| O=C(C1=C[C@H](C2CC2)C[C@H](OCCCCO)O1)N1CCN(Cc2ccc3c(c2)OCO3)CC1 | -1.08% |
| O=c1c(S(=O)(=O)c2ccc(Cl)cc2)cn(Cc2ccccc2)c2ccc(F)cc12 | 6.48% |
| CC(C)(O)CC[C@@H](O)[C@](C)(O)[C@H]1CC[C@@]2(O)C3=CC(=O)[C@@H]4C[C@@H](O)[C@@H](O)C[C@]4(C)C3CC[C@]12C (stereo partly shown) | -10.8% |
| Cn1c(C2=C(O)CN(Cc3ccccc3)C2=N)nc2ccccc21 | -7.36% |
| COc1ccc(CC(=O)NCc2n[nH]c(=S)n2-c2cccc(Cl)c2)cc1 | 4.25% |
| CCc1nc(N2CCN(C(=O)c3ccco3)CC2)c2oc3ccccc3c2n1.Cl | -13% |
| O=C(Nc1ccc2c(c1)OCCO2)C(c1ccc(F)cc1)N1CCCCC1 (stereo not shown) | 12.3% |
| Cc1ccc(C)c(S(=O)(=O)N2CCN(C(=O)c3ccc(C)s3)CC2)c1 | 14.1% |
| Cn1cc(Cl)c(C(=O)N/N=C/c2ccc(OS(=O)(=O)c3ccccc3)cc2)n1 | -10.2% |

| SMILES | hERG current change (%, negative = inhibition) at 1uM |
| --- | --- |
| O=C(NCc1ccc2c(c1)OCO2)c1cc(-c2ccncc2)nc2ccccc12 | -7.22% |
| NC(=O)Cn1nc([N+](=O)[O-])nc1Oc1ccc(Br)cc1 | 3.59% |
| COc1ccc(C(=O)OCC(=O)Nc2ccc(N3CCOCC3)cc2)cc1 | 7.45% |
| Cc1nc2c(C(=O)N3CCCC3)cnn2c(C)c1Cc1c(F)cccc1Cl | -11.4% |
| CC(/C=C/c1ccccc1)=N/NC(=O)Cn1nnc(N)n1 | 16.5% |
| Cc1cccc(CSc2nc3c(cc2C#N)CCC3)c1 | 15.2% |
| CC(=O)Nc1ccccc1C(=O)C(=O)Nc1ccc(Cl)cc1 | 7.72% |
| N#C/C(=N\Nc1ccccc1[N+](=O)[O-])C(=N)N1CCCCC1 | 5.9% |
| O=C(NCC(O)c1ccc([N+](=O)[O-])cc1)Nc1ccccc1 (stereo not shown) | 7.3% |
| Cc1n[nH]c(=S)n1/N=C/c1ccccc1 | 10.1% |
| Cc1ccc(C(=O)N2CCCCCC2)cc1S(=O)(=O)N1CCOCC1 | 9.73% |
| O=C(OCc1ccc(COC(=O)c2cccnc2Cl)cc1)c1cccnc1Cl | 24% |
| Cc1ccccc1-n1c(C)nnc1SCC(=O)NCC1CCCO1 (stereo not shown) | 5.63% |
| CCCNC(=O)C(Cc1ccc(C(F)(F)F)cc1)NC(=O)c1ccc2ccccc2n1 (stereo not shown) | 12.1% |
| COc1ccc(CCNC(=O)CSc2nnc3ccc(-c4cccnc4)nn23)cc1OC | 8.74% |
| O=C(NCc1ccco1)C1CC(c2ccccc2C(F)(F)F)=NO1 (stereo not shown) | 18.4% |
| Cc1ccc(NC(=O)CSc2nccc(=O)[nH]2)c(S(=O)(=O)N2CCOCC2)c1 | 4.66% |
| COc1cccc(NC(=O)C2C3CCC4C(CCC32)C4(Cl)Cl)c1 (stereo not shown) | 8.03% |
| Cc1ccc(NC(=O)COC(=O)c2cccc(OC(F)F)c2)cc1S(=O)(=O)N1CCCCC1 | -2.62% |

Source: PMC4336329 (PLoS ONE, 2015)
